What all share (test): Primary Screen for Target Class Profiling of Small Molecule Inhibitors of Methyltransferases
Test [1] deals with Glycine N-methyltransferase (Homo sapiens) (UniProt Q14749). The following applies: purified enzyme, MTase-Glo SAH luminescence; measured here: GNMT inhibition; at 40 µM; stronger effect = lower value. The method in brief:
(§1)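 Each enzyme was assayed with SAM and its substrate. SAH formation detected by MTase-Glo luminescence; single-point 40 uM screen[…].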

Test [2] addresses Guanidinoacetate N-methyltransferase (Homo sapiens) (UniProt Q14353). The following applies: purified enzyme, MTase-Glo SAH luminescence; measured here: GAMT inhibition; at 40 µM; stronger effect = lower value. Summed up:
as §1

Test [3] deals with Histamine N-methyltransferase (Homo sapiens) (UniProt P50135). To be noted: purified enzyme, MTase-Glo SAH luminescence; measured here: HNMT inhibition; at 40 µM; stronger effect = lower value. Summed up: as §1
In test [4] the target is Nicotinamide N-methyltransferase (Homo sapiens) (UniProt P40261). To be noted: purified enzyme, MTase-Glo SAH luminescence; measured here: NNMT inhibition; at 40 µM; stronger effect = lower value. The method in brief:
as §1

Test [5] deals with Phenylethanolamine N-methyltransferase (Homo sapiens) (UniProt P11086). The following applies: purified enzyme, MTase-Glo SAH luminescence; measured here: PNMT inhibition; at 40 µM; stronger effect = lower value. Summed up:
as §1

The list shows a part of the results. These are further read-outs of the screen, such as a control signal, another cell line or another target. No call is given for them.
On the % scale 0 is the no-effect control and ±100 the full control effect.

With `Cc1cnc(C(=O)N[C@@H]2CCC[C@@H]2C(=O)NCc2cc(F)ccc2F)cn1`, the activity change, negative = inhibition in test [1] is 0.511%; in test [2], 1.38%; in test [3] it was 2.08%; in test [4] it was -4.82%; in test [5], -3.96%.
On the same counts, the results for `COc1ccc(-c2nnn3c2nc(NCc2ccccc2)c2ccccc23)cc1` are -0.31%, 4.08%, 2.65%, 3.99% and -3.45%.
For the molecule `NC(=O)C1CCN(C(=O)CCc2nnc3n(Cc4ccc(Cl)cc4)c(=O)c4ccccc4n23)CC1`, the activity change, negative = inhibition was -2.55% in test [1]; 0.133% in test [2]; -1.82% in test [3]; 6.77% in test [4]; -3.93% in test [5].
Taken in the same sequence, the figures for `Cc1ccc(C)c(N2CCN(C(=O)c3ccc4c(=O)[nH]c5c(C(=O)NC(C)C)sc(=S)n5c4c3)CC2)c1` were -40.1%, 1.31%, -16%, -65.1% and -7.2%.
On the same counts, the results for `COc1cccc(CNC(=O)CCc2nnc3n(Cc4ccc(Cl)cc4)c(=O)c4ccccc4n23)c1` are -9.35%, 2.88%, -2.77%, 3.54% and -6.83%.
On to `CNC(=O)c1cc[nH]c1C1CCCN(Cc2ccc3c(c2)CCO3)C1` (stereo not drawn), for which the activity change, negative = inhibition in test [1] was -0.434%; in test [2] it was -1.68%; in test [3], -16%; in test [4], -5.71%; in test [5], 0.904%.
As to `Cn1nccc1C(=O)N1C[C@@H](F)C[C@H]1C(=O)N1CCCCC1`, the activity change, negative = inhibition in test [1] is -4.88%; in test [2], -6.1%; in test [3], -2.5%; in test [4], -13.2%; in test [5] it was 10.9%.
On the same counts, the results for `Cn1cccc1C(=O)N[C@H]1C[C@@H]2C(=O)N[C@H]3CCN(C(=O)Cc4cccs4)[C@@H]3C(=O)N2C1` are -3.89%, -1.77%, -0.817%, -3.15% and -3.74%.
For the molecule `COc1ccc(OC)c(CNS(=O)(=O)c2ccc3c(c2)n(C)c(=O)n3C)c1`, the activity change, negative = inhibition is -3.7% in test [1]; 3.69% in test [2]; -3.84% in test [3]; -10.5% in test [4]; -4.52% in test [5].
Take `Cn1c(=O)c2ccc(C(=O)NC3CCCC3)cc2n2c(=O)n(Cc3ccc(F)cc3Cl)nc12`: the activity change, negative = inhibition in test [1] was -1.15%; in test [2], -10.4%; in test [3] it was 10.4%; in test [4], -4.01%; in test [5], -8.48%.
Take `COc1ccc(-c2ccc3c(N4CCOCC4)nc(N4CC(C)OC(C)C4)nc3n2)cc1CO` (stereo not drawn): the activity change, negative = inhibition in test [1] was -14.4%; in test [2], -8.75%; in test [3] it was -17.2%; in test [4], -19.8%; in test [5] it was -40.8%.
On the same counts, the results for `CN(Cc1cn(C)c2ccccc12)C1CCc2nn(CC3CC3)c(=O)n2CC1` (stereo not drawn) are -2.28%, -0.184%, -2.27%, -7.6% and -5.7%.
In the case of `COC(=O)c1cc2n(n1)CC(C)(C(=O)NC1CCC(C)CC1)N(c1cccc(OC)c1)C2=O` (stereo not drawn), the activity change, negative = inhibition in test [1] turned out to be 5.36%; in test [2], 0%; in test [3], 5.42%; in test [4], 9.5%; in test [5] it was 4.39%.
As to `COc1cccc(-c2ccc(CN3CCCC3C(=O)N3CCN(c4ncccn4)CC3)cc2)c1` (stereo not drawn), the activity change, negative = inhibition in test [1] was -6.61%; in test [2], 1.37%; in test [3], -0.858%; in test [4], -9.88%; in test [5] it was 2.96%.
On the same counts, the results for `Cc1ccc(N2C(=O)CSc3c(c4ccccc4n3C)C2C(=O)NCCC(C)C)cc1Cl` (stereo not drawn) are 5.9%, 0%, 6.32%, -0.501% and 2.23%.
For `Clc1cccc(N2CCN(c3nc4ccccc4c4nc(-c5cccnc5)nn34)CC2)c1`, the activity change, negative = inhibition in test [2] is -3.23%; in test [4] it was -8.21%; in test [5] it was 3.81%.
As to `Cn1c(CNc2ccc(C(=N)N)cc2)nc2cc(C(=O)N(CCC(=O)O)c3ccccn3)ccc21`, the activity change, negative = inhibition is 3.86% in test [1]; 3.67% in test [2]; -60.9% in test [3]; -15.2% in test [4]; -4.66% in test [5].
On the same counts, the results for `O=C(c1ccoc1)N1CCC2(CC1)CC(CO)N(C(=O)c1ccccc1)C2` (stereo not drawn) are -0.107%, -0.665%, 0.97%, 0.556% and 2.59%.
With `COc1ccccc1CNC(=O)C1(C)Cn2cnc(C(=O)NC3CC3)c2C(=O)N1C1CC1` (stereo not drawn), the activity change, negative = inhibition was -5.52% in test [1]; 2.94% in test [2]; -1.18% in test [3]; -3.48% in test [4]; -3.83% in test [5].
On the same counts, the results for `C=CCNC(=O)c1cnn2c1CN(C(=O)OCc1ccccc1)CC2` are -8.02%, -10.7%, -4.03%, -10.3% and -2.5%.
Taken in the same sequence, the figures for `CC(=O)[C@H]1CCC2C3CC=C4C[C@@H](OS(=O)(=O)O)CC[C@]4(C)C3CC[C@@]21C` (stereo partly drawn) were -0.516%, 10.5%, 7.02%, -4.58% and 2.19%.
Taken in the same sequence, the figures for `CCC(C)C(=O)OC1CC(O)C23C4OCC5(C(O)CC2C1(C)C(O)O4)C3C(=O)C(O)C1(C)C(O)(c2ccoc2)CC2OC251` (stereo not drawn) were -2.29%, -4.22%, -8.32%, -14.9% and -2.18%.
For `CC/C=C\C/C=C\C/C=C\CCCCCCCC(=O)OCC(O)COC1OC(CO)C(O)C(O)C1O` (stereo not drawn), the activity change, negative = inhibition was 0% in test [1]; 9.86% in test [2]; 4.94% in test [3]; -8.79% in test [4]; 5.42% in test [5].
Taken in the same sequence, the figures for `Cc1ccc(C(=O)N[C@H]2CO[C@H]3[C@@H]2OC[C@@H]3n2cc(-c3ccccc3)nn2)cc1` were -10.9%, -7.96%, -4.16%, -13.8% and -7.8%.
On the same counts, the results for `CCCn1c(=O)c2ccc(C(=O)NC(C)CC)cc2n2c(=O)n(CC(=O)c3ccccc3)nc12` (stereo not drawn) are 1.54%, 1.58%, 4.38%, -0.241% and 4.61%.
Taken in the same sequence, the figures for `Cn1nc(C2CCCC2)cc1NC(=O)C1CC1` were -1.1%, 0.715%, 1.92%, -2.33% and 0.277%.
Turning to `COC(=O)NC1CCCN(Cc2ccc(-c3cncnc3)cc2)C1` (stereo not drawn), the activity change, negative = inhibition is -6.36% in test [1]; -0.231% in test [2]; -13.6% in test [3]; -3.14% in test [4]; -10.6% in test [5].
Taken in the same sequence, the figures for `CC1CCC(NC(=O)C2(C)Cn3c(cc4occc43)C(=O)N2CC(C)c2ccccc2)CC1` (stereo not drawn) were -5.36%, 3.97%, -1%, -1.82% and -2.6%.
On the same counts, the results for `CC(C)(O)C1Cc2c(ccc(C(=O)CCc3ccccc3)c2O)O1` (stereo not drawn) are -6.69%, -27.4%, -3.09%, -42.2% and -9.11%.
Consider `COc1ccc(CNC(=O)Cn2nc3n(CCc4ccccc4)c(=O)c4ccccc4n3c2=O)cc1`, for which the activity change, negative = inhibition is -1.03% in test [1]; 3.41% in test [2]; 2.19% in test [3]; 2.03% in test [4]; -0.712% in test [5].

The record behind these values is PubChem BioAssay AID1745853 (National Center for Advancing Translational Sciences (NCATS), 2022).
